Measurements: PubChem BioAssay AID1346428 (National Center for Advancing Translational Sciences (NCATS), 2018)
Where “and” joins values, the source holds several entries; their conditions need not be identical. Identical values can stand only once. The whole screen tested about 48,000 compounds, of which about 1,200 (2.5%) were called active. Not shown: some 2% with an inconclusive outcome.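 Rule for the calls: active = activation of at least 60% and not above a set upper limit (about 1 call in 100 departs from these limits); inconclusive = activation of 40% to 60%, or above that upper limit; inactive = activation under 40%.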 The list shows a part of the results.

Molecular target: Probable G-protein coupled receptor 32 (Homo sapiens) (UniProt O75388)
Chain of UniProt O75388 (O75388 whole entry, looked up): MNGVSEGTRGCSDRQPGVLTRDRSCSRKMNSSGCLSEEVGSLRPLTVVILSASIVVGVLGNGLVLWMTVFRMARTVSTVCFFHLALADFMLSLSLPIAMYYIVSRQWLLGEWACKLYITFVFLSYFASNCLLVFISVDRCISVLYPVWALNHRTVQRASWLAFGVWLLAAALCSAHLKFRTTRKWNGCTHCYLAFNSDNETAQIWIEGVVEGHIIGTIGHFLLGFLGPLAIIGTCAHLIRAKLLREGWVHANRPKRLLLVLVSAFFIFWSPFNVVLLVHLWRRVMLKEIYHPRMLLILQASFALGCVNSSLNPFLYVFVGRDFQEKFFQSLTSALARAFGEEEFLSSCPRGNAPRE
Test: qHTS for Agonists of Human Resolvin D1 Receptor DRV1; note: 0% is about no effect
Conditions: CHO-K1 GPR32 beta-arrestin PathHunter luminescence, 90 min; at 76.9 µM; stronger effect = higher value; zero percent set by DMSO-only wells
Summary of the method: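 PathHunter beta-arrestin recruitment in CHO-K1 cells stably expressing ProLink-tagged GPR32. Cells were exposed to compound for 90 min at 37 C, then chemiluminescence was read after 1 h detection at ambient temperature; DMSO served as basal control.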

activation, inactive:
COc1ccccc1CNC(=O)CC(c1ccc(C)cc1)N1Cc2ccccc2C1=O (centres undefined) -0.956%
COc1ccc2c(c1)Cc1sc(NC(=O)c3cccc(C)c3)nc1-2 -60.3%
Cc1ccc(CNC(=O)C2COc3ccccc3C2)cc1 (centres undefined) -14.5%
Clc1ccc(-c2nc3c4cnn(-c5ccccc5Br)c4ncn3n2)c(Cl)c1 -0.228%
COC(=O)CSc1nc2sc3c(c2c(=O)n1-c1ccccc1C)CC(C)(C)OC3 -1.98%
Cc1oc(-c2ccc(C(=O)NCCC(C)C)cc2)nc1CN1CCc2ccccc21 -0.688%
Cc1ccccc1NC(=O)c1sc2nc3n(c(=O)c2c1C)CCC3 -6.62%
CCc1ccc(NS(=O)(=O)c2cc(-c3cnc(C4CC4)o3)ccc2C)cc1 -20.7%
Cc1ccc(OCC(=O)OC2=C(C(=O)c3ccccc3)N(C)S(=O)(=O)c3ccccc32)cc1 -67.2%
COc1cc(C(=O)NC(c2ccc(Cl)cc2)c2cc(Cl)c3cccnc3c2O)cc(OC)c1OC (centres undefined) -33.6%
CCc1cccc(C)c1NC(=O)CN1CCCN(Cc2ccccc2Cl)S1(=O)=O -6.83%
COc1cc(C2c3c(-c4ccccc4O)n[nH]c3C(=O)N2Cc2ccco2)ccc1OCC(C)C (centres undefined) 12.3%
CCOc1ccccc1NC(=O)C(CC)n1c(C(=O)OC)cc2occc21 (centres undefined) -41.9%
O=C(Cn1ncc2ccsc2c1=O)N1CCN(c2ccccc2F)CC1 -13%
CCCCN(CC)CCNC(=O)C1CCCN(S(=O)(=O)c2cccc3nsnc23)C1 (centres undefined) -11.4%
COc1ccc(N(C(=O)/C=C\C(=O)Nc2ccc(C)cc2)C(C(=O)NCc2ccco2)c2ccc(C)cc2)cc1 (centres undefined) -20.4%
CCCn1c(=NC(=O)c2cc3ccccc3o2)c(C(=O)OCC)cc2c(=O)n3ccccc3nc21 -5.12%
COc1ccc(Nc2oc(/C=C/c3cccc(OC)c3)nc2C#N)cc1 11%
Cc1c(C(=O)N2CCCCCC2)c(S(=O)(=O)N(Cc2ccccc2)C(C)(C)C)c(C)n1C -9.54%
O=S(=O)(c1ccc(-n2cnnn2)cc1)N1CCN(c2cccc(Cl)c2)CC1 5.95%
O=c1cc(-c2ccccc2)n2c(SCc3c(F)cccc3Cl)nnc2[nH]1 -9.94%
Cc1ccc(-n2c(=O)c3cccnc3n2CC(=O)Nc2cc(Cl)ccc2C)cc1 -1.59%
COc1ccccc1OCC(=O)NCC(c1ccc(Cl)cc1)N1CCOCC1 (centres undefined) -7.97%
Cc1ccc(C)c(CN2C(=O)c3ccccc3S(=O)c3ccc(C(=O)N4CCN(c5cccc(Cl)c5)CC4)cc32)c1 (centres undefined) -1.6%
Cc1ccc(NC(=O)Cn2c(=O)n(CCCCC(=O)NCc3ccccc3Cl)c(=O)c3ccccc32)cc1 11.7%
Cc1ccc(NC(=O)C(=O)NCc2ccco2)cc1 26.2%
Cc1ccc(NC(=O)CN(C)S(=O)(=O)c2cnc[nH]2)cc1 6%
CC(C)CC(=O)NC1(C(F)(F)F)C(=O)Nc2c1c(=O)[nH]c(=O)n2-c1ccccc1 (centres undefined) -4.95%
COc1ccc(C(CC(=O)NCc2ccccc2Cl)N2Cc3ccccc3C2=O)cc1OC (centres undefined) 0.706%
CCCc1nn2c(=O)cc(COc3ccc(/C=C(\C#N)C(=O)Nc4ccccc4)cc3)nc2s1 21%
COC(=O)c1cc2sc(Cl)cc2n1Cc1cc(C)ccc1C -20.5%
CCOc1ccc(CNC(=O)CCCc2cn(C)c3ccccc23)cc1OC -21.4%
CCOc1cc2sc(N3CCC(C(=O)Nc4cc(C)cc(C)c4)CC3)nc2cc1Br 3.1%
Cc1cc(=O)c2cc(C(=O)Nc3ccccc3C)ccc2[nH]1 -3.27%
CCc1ccccc1NC(=O)Cn1c2ncccc2c(=O)n1-c1ccccc1 -8.92%
COc1ccc(Cn2ccc3nc(C)c(C(=O)NCc4cccc(OC)c4)cc3c2=O)cc1 -12.4%
Cc1ccc(-n2nc3c(=O)n(CC(=O)NCC(C)c4ccccc4)nc(C)c3c2C)cc1 (centres undefined) 27.1%
COC(=O)c1ccc(CSc2nnc3ccc4ccccc4n23)cc1 -3.84%
COc1cc(F)c(S(=O)(=O)Nc2c(C)n(C)n(-c3ccccc3)c2=O)cc1OC -4.13%
CCn1cc2c(n1)-c1c(oc(C(=O)Nc3cccc(C(F)(F)F)c3)c1C)CC2 16.2%
COc1ccccc1Cn1cc(C(=O)c2ccc(C)cc2)c(=O)c2cc3c(cc21)OCCO3 43.1%
COc1ccc(CCNC(=O)CCCCn2c(=O)c3ccccc3n(Cc3ccccc3Cl)c2=O)cc1OC -0.485%
CCCN(Cc1cccs1)C(=O)Nc1cc(OC)ccc1OC -15.8%
Cc1ccc(N(C)C(=O)c2cc(S(=O)(=O)N3CCOCC3)cn2C)cc1 -14.7%
O=C(CN1CCSc2ccccc21)N1CCN(c2ccc(F)cc2)CC1 -22.4%
COc1ccc(C(=O)Nc2ccc(C(=O)OCc3cc(=O)n4nc(C5CC5)sc4n3)cc2)cc1 3.74%
COc1ccccc1-c1noc(CCCC(=O)Nc2cc(C)ccc2C)n1 -4.86%
CC(=O)c1ccc(NC(=O)CCOc2ccccc2)cc1 -11%
Cc1ccc(-n2nc3c(N4CCC(C(=O)NCc5ccccc5Cl)CC4)nnc(C)c3c2C)cc1 5.12%
CCN(CC)C(=O)Nc1ccc2c(c1)N(Cc1ccccc1)C(=O)c1ccccc1S2 -26%
COc1ccc(OC)c(S(=O)(=O)NCCc2csc(-c3cccc(F)c3)n2)c1 -18.1%
CCOC(=O)c1c(C)[nH]c(C)c1S(=O)(=O)NCC(=O)N1CCN(c2ccccc2OC)CC1 10.2%
Cc1ccc(-n2c(-c3ccco3)nc3c(cnn3-c3ccccc3Cl)c2=O)cc1 -2.56%
Cc1cccc(C(=O)Nc2nnc(S(=O)(=O)N(C)c3ccccc3C)s2)c1 31.7%
COc1ccc(CNC(=O)CCCn2nc(C)c3c(C)n(-c4ccccc4)nc3c2=O)cc1 -13.2%
COc1ccc(OC)c(NS(=O)(=O)c2ccc(-c3cc(C)no3)s2)c1 -8.45%
CCN(C(=O)CSc1nc(-c2ccc(C(C)C)cc2)no1)c1cccc(C)c1 -3.7%
CCc1ccc(CN2CCc3nc(N4CCN(CC)CC4)ncc3C2)cc1 -28.8%
CN(C)c1ccc(CNC(=O)CCn2cccn2)cc1 3.75%
COc1ccc(CCNS(=O)(=O)c2cc(-c3cc(C)no3)ccc2C)cc1OC -12.2%
O=C(Nc1cccc(F)c1)C1CCN(S(=O)(=O)c2cccc3nsnc23)CC1 4.36%
CCn1cc2nc(SCc3cccc(Cl)c3)n(Cc3ccc(C)cc3)c(=O)c2n1 -11.2%
Cc1ccc(Cl)cc1Nc1nn2c(=O)c3ccc(C(=O)N4CCCC(C)C4)cc3nc2s1 (centres undefined) 14.5%
CC(C)c1cnc2c(c1SCC(=O)Nc1cccc(F)c1)c(=O)n(C)c(=O)n2C -25.2%
c1ccc(CSc2nc3ncccc3[nH]2)cc1 5.04%
O=C(Nc1cccc(C(F)(F)F)c1)C1CCCN1S(=O)(=O)c1cccc2nsnc12 (centres undefined) -12.1%
Cc1cc(C)cc(OC(C)C(=O)Nc2c(C(=O)c3ccccc3)oc3ccccc23)c1 (centres undefined) -16.8%
Cc1ccc(CCNC(=O)c2ccc3c(c2)N(Cc2cccc(Cl)c2)C(=O)c2ccccc2S3(=O)=O)cc1 -22%
CSc1ccc(C2c3c(oc4cc(C)cc(C)c4c3=O)C(=O)N2Cc2ccco2)cc1 (centres undefined) -9.82%
CCCN(CCC)S(=O)(=O)c1ccc(C(=O)Nc2sc3c(c2C(=O)OC)CCN(CC)C3)cc1 0.422%
Cc1ccc(S(=O)(=O)N2CCC(C(=O)Nc3ccc(C)c(Cl)c3)CC2)cc1 21.6%
COc1ccc(C(=O)COC(=O)C(Cc2c[nH]c3ccccc23)NC(=O)c2ccc(C(C)(C)C)cc2)cc1 (centres undefined) 34.1%
Cc1cn2c(=O)cc(COC(=O)c3cccc(NC(=O)c4ccccc4C)c3)nc2s1 -17.3%
COc1ccc(-n2nc(C)c3c(C(F)(F)F)cc(-c4cccnc4)nc32)cc1 1.31%
CCOC(=O)c1c(C)[nH]c(C)c1S(=O)(=O)N1CCN(c2cccc(C(F)(F)F)c2)CC1 -9.57%
CCN(CC)C(=O)Cn1c(=O)n(-c2ccc(Cl)cc2)c(=O)c2c3c(sc21)CCC3 -15.4%
COc1ccc(CCNC(=O)C(=O)NCC(c2cccs2)S(=O)(=O)c2ccc(C)cc2)cc1 (centres undefined) 28.9%
O=C1c2[nH]nc(-c3ccccc3O)c2C(c2cccc(OCc3ccccc3)c2)N1CCO (centres undefined) 10.2%
CCOC(=O)c1cc(OC(=O)c2ccccc2C)n(-c2ccccc2)n1 41.9%
COCCCNC(=O)C1CCN(c2nc3ccc(C)cc3[nH]2)CC1 -5.04%
COc1cccc(N2CCN(C(=O)CCS(=O)(=O)c3ccc4c(c3)oc(=O)n4C)CC2)c1 26%
CC1(C)NC(=O)N(c2ccc([N+](=O)[O-])c(C(F)(F)F)c2)C1=O 20.1% and 17.3%

activation, active:
CCCCCCc1ccc(O)cc1O 89.2%
CC(C)(c1ccc(O)cc1)c1ccc(O)cc1 64.1%
